Experimental data reported in PubChem BioAssay AID463173 (ICCB-Longwood Screening Facility, Harvard Medical School, 2010).
The campaign covered roughly 52,000 compounds. About 4,300 (8.3%) were called active. Rule as the data show it: active = survival mostly below about 52% (no sharp cut-off); inactive = mostly above about 56%. The list shows a part of the results.

Each molecule was assayed on DeltatarO mutant (assay: growth inhibition of S. aureus wild type versus tarO mutant, primary screen, teichoic acid synthesis inhibitors, RN4220, OD600 (AID 463173)). Conditions: OD600, 18 h, active compounds read low, screened at 18.75 µg/mL (by protocol).

Structure (SMILES) | survival
COC(=O)c1ccc(NC(=O)c2nn(C)c3c2CS(=O)(=O)c2ccccc2-3)cc1 | inactive: 81%
CCOC(=O)c1cc2c(=O)n3ccccc3nc2n(Cc2ccco2)c1=NC(=O)c1cc(C)cc(C)c1 | active: 29%
CCc1ccccc1NC(=O)CC(c1ccc(F)cc1)N1Cc2ccccc2C1=O (stereo unspecified) | inactive: 117%
O=C(Nc1ccccc1C(=O)OCc1cc(=O)n2ccsc2n1)c1ccccc1Cl | inactive: 60%
COCCn1c(=N)c(C(=O)NC2CCCC2)cc2c(=O)n3cc(C)ccc3nc21 | inactive: 70%
Cc1nc2cc(NC(=O)Nc3ccccc3Cl)ccc2n1C | inactive: 86%
CCN(CC)CCNC(=O)c1cn(CC)c2ccc(S(=O)(=O)N3CCc4ccccc4C3)cc2c1=O | inactive: 110%
CCC(=O)N1CCc2cc(Br)cc(S(=O)(=O)N3CCN(c4cc(C)ccc4C)CC3)c21 | inactive: 56%
COc1cc(-c2cc3n(C)c(C)c(CCC(=O)NC4CCCCC4)c(=O)n3n2)cc(OC)c1OC | inactive: 92%
CCOC(=O)c1cc(-c2ccc(C)cc2)n(CCC(=O)NCCc2ccc(C)cc2)c1C | inactive: 80%
CCC(=O)N1CCc2cc(Br)cc(S(=O)(=O)CCC(=O)Nc3ccc(Cl)cc3)c21 | inactive: 80%
Cc1cccc(C)c1NC(=O)CCC(=O)N1Cc2ccccc2Oc2ncccc21 | inactive: 69%
O=C(NC1CCN(Cc2ccccc2)CC1)c1ccc(Cn2c(=O)c3ccccc3n(Cc3cccc(F)c3)c2=O)cc1 | inactive: 88%
COC(=O)c1cc2sccc2n1Cc1ccc(F)cc1Cl | inactive: 65%
CCOC(=O)c1c(C)oc2ccc(N(C(C)=O)S(=O)(=O)c3c(C)cc(C)cc3C)cc12 | inactive: 168%
COc1ccc(OC)c(CC2C(=O)Nc3ccc(Br)cc32)c1 (stereo unspecified) | inactive: 72%
Cc1cc(N2CCN(c3cc(Cl)ccc3C)CC2)n2nc(-c3ccccc3)nc2n1 | inactive: 77%
CCC(C)NC(=O)C1CCN(Cc2cc(OC)ccc2OC)CC1 (stereo unspecified) | inactive: 70%
Cc1cc(F)ccc1S(=O)(=O)Nc1cc2c(C(=O)O)c(C)oc2c2ccccc12 | active: 39%

Structure (SMILES) | survival
CCCCNC(=O)C1CCC(Cn2c(=O)c3sccc3n(CC(=O)Nc3ccccc3)c2=O)CC1 (stereo unspecified) | inactive: 94%
O=C(COc1ccc(F)cc1)Nc1ccc2nc(SCCOc3ccccc3)sc2c1 | inactive: 87%
COc1cccc(NC(=O)Cn2c(=O)n(Cc3ccc(C(=O)NCc4ccc(C)cc4)cc3)c(=O)c3ccccc32)c1 | inactive: 80%
COc1ccc(Cl)cc1C(=O)NCCS(=O)(=O)N1CCN(c2ccccc2OC)CC1 | inactive: 80%
COCCNC(=O)CN1CCC(NC(=O)Nc2ccc(C(F)(F)F)cc2)CC1 | inactive: 92%
CCOc1ccc(Cn2c(CNS(=O)(=O)c3ccc(C(C)(C)C)cc3)nc3cccnc32)cc1 | inactive: 85%
CCOC(=O)c1c(C)n(-c2ccccc2)c2ccc(OC(=O)c3c(F)cccc3F)cc12 | inactive: 67%
COc1ccc(CCNC(=O)C2c3ccccc3C(=O)N2Cc2ccccc2)cc1OC (stereo unspecified) | inactive: 90%
CCOc1ccc(CNC(=O)C2=Cc3cccc(OC)c3OC2)cc1 | inactive: 87%
CCCC(C)C(=O)Nc1nnc(C(F)(F)F)s1 (stereo unspecified) | inactive: 103%
O=C(Cc1ccc(NC(=O)N2CCSc3ncccc32)cc1)NCc1cccc(Cl)c1 | inactive: 65%
CC(=O)NC1(c2ccccc2F)CCN(CC(=O)N2CCN(C(=O)c3ccco3)CC2)CC1 | inactive: 103%
Cc1cccc(C(=O)NCc2nc3ccccc3n2Cc2ccccc2Cl)c1 | inactive: 106%
CCOc1ccccc1CNC(=O)c1oc2c(c1C)-c1nn(Cc3cccc(Cl)c3)cc1CC2 | inactive: 70%
Cc1ccc2c(=O)c(C(=O)c3ccc(Cl)cc3)cn(CC(=O)Nc3ccc4c(c3)OCCO4)c2n1 | inactive: 67%
O=C(Nc1cccc(OCc2cc(=O)n3ccccc3n2)c1)Nc1cccc(C(F)(F)F)c1 | active: -4%
Cc1ccc(NC(=O)C2CCCN2S(=O)(=O)c2cccc3cccnc23)c(C)c1 (stereo unspecified) | inactive: 70%
COc1ccc(CNC(=O)C2CCN(C(=O)N3CCOc4ccc(Cl)cc43)CC2)cc1 | inactive: 92%
Cc1cc(Nc2ccccc2O)nc(C)n1 | inactive: 67%

Structure (SMILES) | survival
COc1ccc(NC(=O)CCCN2C(=O)CCn3nc(-c4cn(C)c5ccccc45)cc32)cc1 | inactive: 77%
Cc1ccc(C)c(S(=O)(=O)n2nc(C)c(S(=O)(=O)N3CCCCCC3)c2C)c1 | inactive: 88%
Cc1ccccc1OCC(=O)Nc1ccc2nc(SCC(=O)N3CCOCC3)sc2c1 | inactive: 77%
O=C(CN1C(=O)C2(SCC(=O)N2c2ccc(F)c(F)c2)c2ccccc21)Nc1cccc(Cl)c1 (stereo unspecified) | inactive: 83%
O=C(CCC1CCCCC1)Nc1nccs1 | inactive: 78%
CCOc1ccc(NC(=O)CCNS(=O)(=O)c2cccs2)cc1 | inactive: 51%
Cc1ccc(-c2nn(CCC(N)=O)c(=O)c3ccccc23)cc1 | inactive: 68%
COc1c(C)cc(NS(=O)(=O)c2ccc3c(c2)OCCO3)cc1C | inactive: 72%
Cc1cccc(NC(=O)C2CCN(S(=O)(=O)c3c(C)noc3/C=C/c3ccco3)CC2)c1 | inactive: 65%
CCN(Cc1ccccc1)S(=O)(=O)c1ccc(F)c(C(=O)Nc2cc(C)ccc2OC)c1 | inactive: 98%
C=CCn1c(N)c(-c2nc3ccccc3[nH]2)sc1=S | inactive: 43%
O=C(NC1CC1)C1C2C=CC3(O2)C1C(=O)N(Cc1ccccc1)C3C(=O)NC1CCCC1 (stereo unspecified) | inactive: 66%
Cc1cccc(C)c1-n1ncc(C(=O)NCCN2CCN(C)CC2)c1C1CCN(C(=O)OC(C)(C)C)CC1 | active: 8%
CCOC(=O)c1cnc2ccc(OC)cc2c1Nc1cccc(C(C)=O)c1 | active: 9%
Cc1ccc(Cl)cc1NC(=O)N1CCC(CN2CCc3ccccc3C2)CC1 | inactive: 86%
CSC1=C(C#N)C(c2ccc(Cl)cc2)CC(=O)N1 (stereo unspecified) | inactive: 75%
CCC(Sc1nc2ncccc2[nH]1)C(=O)Nc1ccccc1F (stereo unspecified) | inactive: 112%
COc1ccc2c(CNCc3cccs3)c(C(=O)O)n(Cc3ccccc3C)c2c1 | inactive: 99%
